# Source: PubChem BioAssay AID463173 (ICCB-Longwood Screening Facility, Harvard Medical School, 2010)
# Hit rate of the full screen: of about 52,000 compounds, about 1,700 (3.3%) were called active. Rule as the data show it: active = survival mostly below about 52% (no sharp cut-off); inactive = mostly above about 56%. The list shows a part of the results.
# Test system: Wild type
# Assay: growth inhibition of S. aureus wild type versus tarO mutant, primary screen, teichoic acid synthesis inhibitors, RN4220, OD600 (AID 463173)
# Settings: S. aureus RN4220 wild type/DeltatarO growth, OD600, 18 h, stronger effect = lower value, screened at 18.75 µg/mL (by protocol)
row,SMILES,survival
1,O=C(NC1CCCCC1)NC1CCN(CC(=O)c2ccc(Cl)cc2)CC1,inactive: 106%
2,COc1ccc(N2C(=O)CCSC23C(=O)N(Cc2ccc(F)cc2)c2ccccc23)cc1 (stereo not given),inactive: 70%
3,Cc1ccc(-c2onc(C)c2C)cc1S(=O)(=O)Nc1cccc(Cl)c1C,inactive: 55%
4,O=S(=O)(c1ccc(Br)cc1)c1nnn2c1nc(NCCc1ccccc1)c1sccc12,inactive: 42%
5,Cc1ccc(CCNC(=O)CCn2nc(-c3ccc(Cl)cc3)ccc2=O)cc1,inactive: 60%
6,Cc1cn2c(=O)c(S(=O)(=O)Nc3ccc(N4CCOCC4)cc3)c(C)nc2s1,inactive: 94%
7,Cc1nc(N2CCCC2)ncc1C(=O)NCc1ccc(F)cc1,inactive: 68%
8,CC1CCN(S(=O)(=O)c2cc(C(=O)NCc3ccccc3)n(C)c2)CC1,inactive: 71%
9,COc1cc2ncc3c(-c4ccccc4)nn(CC(=O)NC4CCCCC4)c3c2cc1OC,inactive: 79%
10,COCCNC(=O)c1cnn(-c2cccc(C)c2)c1-n1cccc1,inactive: 99%
11,CN(C(=O)c1ccc2c(c1)N(Cc1ccc(F)cc1)C(=O)c1ccccc1S2(=O)=O)C1CCCCC1,inactive: 84%
12,COc1ccc(C(=O)NNc2ncnc3c2cnn3-c2ccc(C)cc2C)cc1,active: -3%
13,CCC(CC)C(=O)Nc1nnc(S(=O)(=O)N2c3ccccc3CC2C)s1 (stereo not given),inactive: 83%
14,CCOCCCn1c(=N)c(C(=O)NC(C)c2ccccc2)cc2c(=O)n3cccc(C)c3nc21 (stereo not given),inactive: 131%
15,COc1ccc(C2=C(C)C(N3CCN(c4ccc(OC)cc4)CC3)=NS2(=O)=O)cc1,inactive: 88%
16,COc1ccc(CNC(=O)C(OC(=O)c2ccco2)c2ccc(C)cc2)cc1 (stereo not given),inactive: 106%
17,Cc1ccc2occ(CC(=O)Nc3ccc(Cl)c(C(F)(F)F)c3)c2c1,inactive: 71%
18,Cc1cc(N2CCC(C(=O)Nc3ccccc3Cl)CC2)n2nc(C)c(-c3ccc(Cl)cc3)c2n1,inactive: 85%
19,Fc1cccc(-c2nnn3c2nc(NCc2ccc4c(c2)OCO4)c2ccccc23)c1,inactive: 133%
20,CCOC(=O)Cn1c(=O)oc2cc(S(=O)(=O)NC(C)c3ccccc3)ccc21 (stereo not given),inactive: 66%
21,COC(=O)c1nc2n(n1)C(c1cc(OC)ccc1OC)C=C(c1ccc(Br)cc1)N2 (stereo not given),inactive: 69%
22,C=C(C)CN1N=C(C(C)(C)C)CC1=O,inactive: 100%
23,CCc1ccc(CN(C(=O)Nc2cccc(Cl)c2)c2ccccn2)cc1,inactive: 104%

row,SMILES,survival
1,O=C(c1ccccc1F)N1c2nc(-c3ccco3)nn2C2(CCCCC2)[C@@H]2CCCC[C@@H]21,inactive: 93%
2,Cc1c(Cl)cccc1NS(=O)(=O)c1ccc(NS(=O)(=O)c2ccc3c(c2)OCCO3)cc1,inactive: 34%
3,COc1ccc(Cl)cc1NC(=O)c1cnc(N2CCCCC2)c2ccccc12,inactive: 80%
4,COc1ccccc1CNC(=O)c1ccc(-n2c(C)cc3c2CCCC3)cc1,inactive: 85%
5,CCOC(=O)c1ccccc1NC(=O)N1CC(C)Oc2ccc(C)cc21 (stereo not given),inactive: 100%
6,CCOc1ccc(NC(=O)C2CCN(S(=O)(=O)c3c(C)noc3/C=C/c3ccco3)CC2)cc1,inactive: 73%
7,COC(=O)CNc1ccc(C)c(C)c1,inactive: 117%
8,CCCCOC(=O)/C(C#N)=C\c1ccc(-c2ccc(Cl)cc2)o1,inactive: 76%
9,CCOc1ccc(NC(=O)CCn2cccn2)cc1,inactive: 89%
10,Cc1ccc(-c2nc3ccccn3c2Nc2ccc3c(c2)OCCO3)o1,inactive: 62%
11,O=C1CN(C(=O)COc2ccc(Cl)cc2)C(c2ccc(F)cc2)c2cc(Cl)ccc2N1 (stereo not given),inactive: 39%
12,CCOC(=O)N1CCN(C(=O)c2ccc3c(c2)N(Cc2cccc(Cl)c2)C(=O)c2ccccc2S3=O)CC1 (stereo not given),inactive: 81%
13,CC(=O)c1ccc(C(=O)N(Cc2cccnc2)c2nc3c(C)c(C)ccc3s2)cc1,active: -3%
14,COc1cc(NC(=O)C(=O)Nc2ccc3nc4n(c(=O)c3c2)CCCCC4)cc(OC)c1OC,inactive: 80%
15,O=C(Nc1ccc(Br)cc1)C1CCN(c2ncccn2)CC1,inactive: 89%
16,Cc1ccc(NC(=O)N2CCN(C)c3ncccc32)cc1C,inactive: 81%
17,O=C(CN1C(=O)COc2ccc(S(=O)(=O)N3CCCCCC3)cc21)NCCc1ccccc1,inactive: 92%
18,COc1cc(OC)c(N(C)C(=O)Cn2ncc3c(=O)oc4ccccc4c32)cc1Cl,inactive: 73%
19,Cc1ccc(CN2C(=O)N(c3ccccc3)C(=O)C2CC(=O)Nc2ccccc2)cc1 (stereo not given),inactive: 78%
20,COCCNC(=O)c1c(NC(=O)c2cc(=O)c3cc(Cl)ccc3o2)sc2c1CCCC2,inactive: 85%
21,COC(=O)c1ccccc1NC(=O)N1CCC(n2c(C)nc3cccnc32)CC1,inactive: 115%
22,O=C(Nc1ccccc1)C1C2C=CC3(O2)C1C(=O)N(C1CCCC1)C3C(=O)NC1CCCCC1 (stereo not given),inactive: 103%
23,COc1ccccc1NC(=O)Cn1nnc(C(=O)Nc2ccccc2Br)c1N,inactive: 85%

row,SMILES,survival
1,CCc1cccc(C)c1NC(=O)Cn1cc2c(n1)CCCCC2,inactive: 82%
2,CCC(C)NC(=O)CSc1nc(-c2ccc(F)cc2)cc(C(F)(F)F)n1 (stereo not given),inactive: 81%
3,COC(=O)c1ccccc1NC(=O)c1cnc2sc(N3CCOCC3)nn2c1=O,inactive: 140%
4,CC(=O)N1CCN(c2csc3ccc(Br)cc3c2=O)CC1,inactive: 74%
5,Cc1ccc(CNC(=O)c2cc(=O)c3cc(C)cc(C)c3o2)cc1,inactive: 105%
6,CCOc1ccc(NC(=O)c2cc3cc4cc(OC)ccc4nc3s2)cc1,inactive: 80%
7,COc1ccc(Cn2nnnc2CN2CCc3ccccc32)cc1,inactive: 109%
8,CCc1nn(CCCC(=O)NCc2cc(Br)ccc2OC)c(=O)c2cc3occc3n12,inactive: 78%
9,COc1cccc(C(=O)Nc2cccc(C(=O)OCc3cc(=O)n4c5c(sc4n3)CCCC5)c2)c1,inactive: 88%
10,Cc1cccc(NS(=O)(=O)c2ccc3c(c2)OCC(C(=O)N2CCCC2)O3)c1C (stereo not given),inactive: 60%
11,O=c1c2cccnc2n(Cc2cccc(F)c2)c(=O)n1Cc1ccccc1Cl,inactive: 93%
12,Cc1ccc(-c2nnc(Nc3ccc(O)cc3)c3ccccc23)cc1S(=O)(=O)N1CCCCC1,inactive: 119%
13,COc1ccc2cc(CNc3ccc(C)cc3)c(=O)n(CC(=O)Nc3cccc(C(F)(F)F)c3)c2c1,inactive: 88%
14,CCOC(=O)CSc1nc2c(sc3cccc(F)c32)c(=O)n1Cc1ccc(OC)cc1,inactive: 72%
15,O=C(NCCS(=O)(=O)N1CCN(c2ccc(F)cc2)CC1)C1CC(=O)N(c2ccccc2)C1 (stereo not given),inactive: 68%
16,CS(=O)(=O)Cc1nc2ccccc2oc1=O,inactive: 92%
17,CC(C)(C)C(=O)Nc1ccc2nc(SCC(=O)N3CCc4ccccc43)sc2c1,inactive: 105%
18,Cc1ccc(S(=O)(=O)c2cn(CC(=O)Nc3ccc4c(c3)OCO4)c3ccccc3c2=O)cc1C,inactive: 117%
19,COc1ccccc1-n1c(=O)c2c3c(sc2n(Cc2ccccc2F)c1=O)CN(C(C)=O)CC3,inactive: 128%
20,CC(C)c1cc(-c2nc(-c3ccc(Br)cc3)no2)n[nH]1,inactive: 78%
21,Cc1cc2c(n1-c1ccc(C(=O)NCCc3ccccc3)cc1)CCC(C)C2 (stereo not given),inactive: 73%
22,CCCN(Cc1cccs1)C(=O)Nc1ccc(Br)cc1F,inactive: 76%
23,COc1cc2nc(C3CCC3)n(NC(=O)c3ccccc3C)c(=O)c2cc1OC,inactive: 115%

row,SMILES,survival
1,CCCN1CCN(CCNC(=O)Nc2ccccc2OCC)CC1,inactive: 86%
2,CCN1CCN(c2ncc3c(n2)CCN(Cc2ccc(OC)c(OC)c2)C3)CC1,inactive: 63%
3,COc1ccc2[nH]c(=O)c(CN(C(=O)c3cccc(Cl)c3)c3cccc(C)c3)cc2c1,inactive: 81%
4,CCN1C(=O)c2ccccc2S(=O)c2ccc(C(=O)N3CCN(c4ccccc4OC)CC3)cc21 (stereo not given),inactive: 86%
5,COc1cccc(CNC(=O)CCCCCn2c(=O)[nH]c3cc(OC)c(OC)cc3c2=O)c1,inactive: 143%
6,CCOC(=O)c1c(C)[nH]c(C)c1S(=O)(=O)NCC(=O)NCc1ccccc1Cl,inactive: 72%
7,COc1cc(C(CC(=O)Nc2cc(C)ccn2)N2Cc3ccccc3C2=O)cc(OC)c1OC (stereo not given),inactive: 88%
8,CN(Cc1ccccc1)C(=O)c1cc(-c2cccc(Cl)c2)on1,active: -15%
9,CN1CCN(C(=O)NC2CCCCC2)CC1,inactive: 108%
10,CCC(Sc1nc(N)cc(=O)[nH]1)C(=O)Nc1cccc2ccccc12 (stereo not given),inactive: 107%
11,COc1ccccc1CNC(=O)CCCn1c(=O)c2ccccc2n(Cc2ccccc2C#N)c1=O,inactive: 131%
12,CN(Cc1ccccc1)C(=O)C1CCN(S(C)(=O)=O)CC1,inactive: 96%
13,COc1cc(-c2oc3ccc(C)cc3c(=O)c2O)cc(OC)c1OC,inactive: 70%
14,Cc1cc2c(n1-c1ccc(C(=O)NCc3ccc(OC(C)C)cc3)cc1)CCCC2,inactive: 91%
15,COc1ccccc1NC(=O)CSc1oc(-c2ccccc2)nc1S(=O)(=O)c1ccccc1,inactive: 134%
16,COc1ccc2c(c1)c1c(c(=O)n(-c3cccc(C)c3)c(=O)n1CC(=O)NCC1CCCO1)n2C (stereo not given),inactive: 71%
17,CCOc1ccccc1C(=O)Nc1ccc(S(=O)(=O)Nc2ncccn2)cc1,inactive: 90%
18,Cc1cccc(Cc2c(C)nc3nc(SCc4ccccc4F)nn3c2C)c1,inactive: 91%
19,CCc1cccc(C)c1NC(=O)c1ccc2c(c1)CCN2S(=O)(=O)CC,inactive: 80%
20,CC(=O)Nc1ccc(NC(=O)c2cc(-c3cccs3)on2)cc1,inactive: 95%
21,O=C(CSC1=Nc2ccccc2N=C(c2ccc(F)cc2)C1)Nc1ccc(Cl)cc1,inactive: 92%
